# Measured values as given in PMC4336329 (PLoS ONE, 2015).
# About 2,200 (0.71%) of roughly 310,000 compounds showed an effect of 50% or more. Effects have a minus sign here. Some of the results follow.
# Biological target: human ether-à-go-go-related gene (hERG) potassium channel (human, UniProt Q12809)
# Experiment: primary screen, population patch clamp on CHO cells stably expressing hERG
# Description: Briefly, Chinese hamster ovary (CHO) cells stably expressing the hERG channel were dislodged from tissue culture flasks and dispensed into PPC plates. […] During the recording, background leak currents were estimated by a 100 ms step to -80 mV from an initial holding potential of -70 mV and subtracted from the subsequent current measurement. The campaign was conducted in two phases using slight differences in recording protocol. In the first phase, the initial voltage pulse used a 100 ms step to -30 mV from a holding potential of -70 mV, a 2 s conditioning step to +25 mV, and a 2 s test step to -30 mV. During the second phase of the screen, the potential during the conditioning step was raised to +45 mV. In both phases of the campaign, a secondary voltage pulse was applied using the same parameters as the second phase initial pulse. The initial and secondary pulses were applied in the absence of compound, and upon application of 1 μM and 10 μM test concentrations. Small molecule effects on hERG current density were quantified by […].
# human ether-à-go-go-related gene (hERG) potassium channel, sequence (Q12809 whole entry, looked up): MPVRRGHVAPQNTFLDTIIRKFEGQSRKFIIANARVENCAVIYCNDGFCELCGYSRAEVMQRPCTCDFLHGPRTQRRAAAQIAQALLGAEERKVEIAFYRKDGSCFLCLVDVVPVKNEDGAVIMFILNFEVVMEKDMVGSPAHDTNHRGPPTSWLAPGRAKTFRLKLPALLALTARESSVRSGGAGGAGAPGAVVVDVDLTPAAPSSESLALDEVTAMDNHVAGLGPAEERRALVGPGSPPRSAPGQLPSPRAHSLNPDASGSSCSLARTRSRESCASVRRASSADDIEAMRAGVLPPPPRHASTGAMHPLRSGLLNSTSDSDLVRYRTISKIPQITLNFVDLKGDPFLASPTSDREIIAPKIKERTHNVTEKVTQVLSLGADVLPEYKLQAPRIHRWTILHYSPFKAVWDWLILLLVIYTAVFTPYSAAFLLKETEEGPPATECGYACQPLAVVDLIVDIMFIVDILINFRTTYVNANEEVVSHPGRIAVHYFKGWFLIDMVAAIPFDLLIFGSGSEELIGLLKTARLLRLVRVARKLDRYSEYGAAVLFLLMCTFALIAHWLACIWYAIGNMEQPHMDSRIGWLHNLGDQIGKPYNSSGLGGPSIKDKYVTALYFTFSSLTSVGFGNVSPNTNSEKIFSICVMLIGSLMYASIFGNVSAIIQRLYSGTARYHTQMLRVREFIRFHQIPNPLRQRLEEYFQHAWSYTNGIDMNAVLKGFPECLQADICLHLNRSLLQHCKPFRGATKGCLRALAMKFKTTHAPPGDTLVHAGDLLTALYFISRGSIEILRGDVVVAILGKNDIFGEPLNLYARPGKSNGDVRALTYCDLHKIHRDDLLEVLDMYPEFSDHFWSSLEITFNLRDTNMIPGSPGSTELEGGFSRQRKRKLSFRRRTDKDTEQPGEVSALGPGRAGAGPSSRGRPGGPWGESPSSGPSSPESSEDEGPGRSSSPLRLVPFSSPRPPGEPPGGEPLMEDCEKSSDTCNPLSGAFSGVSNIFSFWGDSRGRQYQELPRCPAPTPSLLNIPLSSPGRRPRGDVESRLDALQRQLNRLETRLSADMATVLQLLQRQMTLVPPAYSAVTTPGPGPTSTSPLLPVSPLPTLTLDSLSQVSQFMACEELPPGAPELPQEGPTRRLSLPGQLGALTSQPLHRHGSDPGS
row,Compound,"hERG current change (%, negative = inhibition) at 1uM"
1,O=C(NCc1ccc(Cl)cc1)C1=Cc2cc(Cl)ccc2OC1,0.129%
2,CC(C)C[C@@]12C(=O)N(c3cccc(F)c3)C(=O)N1[C@H](c1ccc(Cl)cc1)[C@@H]1C(=O)N(C3CCCCC3)C(=O)[C@@H]12,13.5%
3,O=C(CSc1nnnn1-c1cccc(F)c1)Nc1nc2ccccc2s1,7.84%
4,COCCCNCCCCOc1c(Cl)cc(C)cc1Br.O=C(O)C(=O)O,-20.1%
5,CCOc1ccc(-n2c(=O)c3sccc3n(CC(=O)NCc3ccco3)c2=O)cc1,2.66%
6,Cc1cccc(N2CN(Cc3ccco3)CNC2=S)c1,11.2%
7,COc1ccc(C(=O)N/N=C(/C)c2ccc(N3CCCCC3)cc2)cc1,8.27%
8,CCc1c(C)c2cc(Cl)c(O)c(CN(CC)CC)c2oc1=O,9.4%
9,O=C(COCc1cc(-c2ccc3c(c2)OCO3)on1)N1CCN(c2ccccc2)CC1,-0.412%
10,CC(/C=C/c1ccco1)=N\NC(=O)c1cc(C)[nH]n1,9.76%
11,CCOC(=O)c1cnn(-c2ccccc2)c1NC(=O)CSc1nnc(-c2cccs2)n1CC,-44.3%
12,O=C(Nc1cc(F)ccc1F)c1ccc(-n2cncn2)c([N+](=O)[O-])c1,9.36%
13,COCCN(C(=O)COC(=O)COc1ccc2c(c1)CCC2)c1c(N)n(Cc2ccccc2)c(=O)[nH]c1=O,5.96%
14,CN1c2ccccc2C(O)=C(C(=O)Nc2ccccc2)S1(=O)=O,3.21%
15,COC(=O)c1ccc(COc2ccc(C3C4=C(CCCC4=O)Nc4onc(C)c43)cc2)cc1 (stereo not drawn),-2.18%
16,O=c1cc(Cn2ccnc2)c2cc(O)ccc2o1,15.2%
17,Cc1ccc(S(=O)(=O)N2CCC(C(=O)OCC(=O)N3CCC(C)CC3)CC2)cc1C,9.02%
18,COc1ccc2c3c([nH]c2c1)C1CC2C(CC(O)C(OC)C2C(=O)O)CN1CC3 (stereo not drawn),17.7%
19,O=C(Nc1nc(-c2ccc3c(c2)OCCO3)cs1)c1ccco1,6.84%
20,CCO[C@H]1OC(C(=O)O)=C[C@@H](c2cn(C(C)=O)c3ccccc23)[C@@H]1CCCO,19%
21,Cc1ccc(C(=O)NC(NC(=O)c2ccc(C)cc2)c2cccc([N+](=O)[O-])c2)cc1.O,7.7%
22,CCn1c(SCC(=O)NNC(=S)Nc2ccccc2)nnc1-c1ccc(Cl)cc1,13.9%
23,COc1ccc(NS(=O)(=O)c2csc(C(N)=O)c2)cc1OC,14.9%

row,Compound,"hERG current change (%, negative = inhibition) at 1uM"
1,COc1cc(C(=O)Nc2c(C)cc(C)cc2C)c(Br)c(OC)c1OC,-2.78%
2,Cc1ccc(OCCCC(=O)N2CCOCC2)cc1,10.3%
3,CCc1nnc(NC(=O)c2ccc(S(=O)(=O)N3CCOCC3)cc2)s1,0.698%
4,O=C(NNC1=Nc2ccccc2SC1)c1cccc([N+](=O)[O-])c1,4.14%
5,CC(C)c1ccc(CNc2ccc(N3CCOCC3)cc2)cc1,14.5%
6,Cc1cccc(-c2ocnc2C(=O)Nc2ccccc2NC(=O)c2ccccn2)c1,8.05%
7,O=C(CCc1ccccc1)NC(=S)Nc1ccccc1Br,6.8%
8,CCC(=O)Nc1ccc2oc(-c3cccnc3)nc2c1,9.82%
9,CN1C(=O)C(=Cc2cn(CC(=O)N3CCCCC3)c3ccccc23)C(=O)N(C)C1=O,1.13%
10,COC(=O)C1CCCN1C(=O)c1cccs1 (stereo not drawn),14.3%
11,CC(C)CN1CCC(=O)N(CCC#N)CC1,3.88%
12,Cn1ncc2c(Nc3ccc(Cl)cc3)ncnc21,11.4%
13,O=C(CN1CCN(C(=O)C2CCCO2)CC1)Nc1ccc(Cl)c(Cl)c1 (stereo not drawn),-6.1%
14,Cc1ccc(OCCCn2ccnc2)c(Br)c1,8.92%
15,CCOC(=O)C1(CCc2ccccc2)CCN(Cc2ccccn2)CC1,-57.1%
16,O=C(NCCCn1ccnc1)NC(C(F)(F)F)C(F)(F)F,-5.26%
17,Cc1ccc(NC(=O)CN2C(=O)NC(C)(c3ccc(Cl)cc3)C2=O)cc1 (stereo not drawn),14.4%
18,CC(=O)Nc1c2c3c(cccc3n(C)c1=O)C(=O)c1ccccc1-2,4.67%
19,OCCCCC#Cc1c(-c2ccsc2)sc2ccccc12,9.16%
20,CC(OC(=O)c1ccc(O)cc1)C(=O)Nc1nc(-c2ccccc2)cs1 (stereo not drawn),4.82%
21,O=C(COc1ccc(Cl)cc1)N1CCN(Cc2ccc([N+](=O)[O-])cc2)CC1.O=C(O)C(=O)O,-76.4%
22,Cc1ccc(NC(=O)CN2CCc3cc4c(cc3C2C)OCCCO4)cc1 (stereo not drawn),6.01%
